{"source": "the supplement of paper PMC8728848", "binders": {"B1": {"name": "B1257 (Bifidobacterium sp) (protein)", "chain": "MKKSIRLVAAIAALAMTAGISACGSSTNGNQAKSDVTAQDVETALTDTSKNVELTVWAYSAKQMEPTVKAFEKKYPHIKINFVNTGAAGDHFTKFQNVVQAQKDIPDVVQMGANKFQQFAVSGALLNFANDSIEKAWSKLYTKTAWAQVHYAGGLYGAPQDATPLANYVRKDILDEHNLQVPESWEDIYNEGIKLHKEDSNKYMGILGSDISFFTNLYRSVGARLWKVNSVDDVELTMNSGKAKEFTEFLQKCLKDGVLEGGTVFTDEFNRSINDGRYATFINENWMGNTYKEQNPSLKGKMVVAAPPSWKGQPYQSSSVGSMMSVSAACPKEKQAAALAFINWLDSDKDAIQSWQDTNNGNFFMAASVYQDDENQRNKKETDGYYANDDVNAVYFDSMDKVNTDWEYLPFMSQVEVVFNDVIVPQMNENGDLVGAMAKAQQELKTYAKDNGFKVTTDAD"}}, "assay_in_all_cases": "glycan array binding signal (z-score within array); higher = stronger binding", "conditions_in_all_cases": "glycan notation: IUPAC condensed, linker removed", "key": {"Fuc(a1-2)Gal": {"target": "Fuc(a1-2)Gal", "procedure,_shortened": "(§1)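 Glycan array data were curated from 3228 arrays in the Consortium for Functional Glycomics database and kept only where the protein sequence was available. Glycan names were converted to IUPAC-condensed notation, and columns mapping to the same glycan were averaged. The binding signal is a within-array Z-score, averaged across arrays of the same protein sequence at different concentrations or buffers and across linkers. Negative Z-scores can be read as non-binding.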"}, "Fuc(a1-2)Gal(b1-3)GalNAc": {"target": "Fuc(a1-2)Gal(b1-3)GalNAc", "procedure,_shortened": "as §1"}, "[1]": {"target": "Fuc(a1-2)Gal(b1-3)GalNAc(a1-3)[Fuc(a1-2)]Gal(b1-4)Glc", "procedure,_shortened": "as §1"}, "[2]": {"target": "Fuc(a1-2)Gal(b1-3)GalNAc(a1-3)[Fuc(a1-2)]Gal(b1-4)GlcNAc", "procedure,_shortened": "as §1"}, "[3]": {"target": "Fuc(a1-2)Gal(b1-3)GalNAc(b1-3)Gal", "procedure,_shortened": "as §1"}, "[4]": {"target": "Fuc(a1-2)Gal(b1-3)GalNAc(b1-3)Gal(a1-4)Gal(b1-4)Glc", "procedure,_shortened": "as §1"}, "[5]": {"target": "Fuc(a1-2)Gal(b1-3)GalNAc(b1-4)[Neu5Ac(a2-3)]Gal(b1-4)Glc", "procedure,_shortened": "as §1"}, "Fuc(a1-2)Gal(b1-3)GlcNAc": {"target": "Fuc(a1-2)Gal(b1-3)GlcNAc", "procedure,_shortened": "as §1"}, "[6]": {"target": "Fuc(a1-2)Gal(b1-3)GlcNAc(b1-2)Man(a1-3)[Fuc(a1-2)Gal(b1-3)GlcNAc(b1-2)Man(a1-6)]Man(b1-4)GlcNAc(b1-4)GlcNAc", "procedure,_shortened": "as §1"}, "[7]": {"target": "Fuc(a1-2)Gal(b1-3)GlcNAc(b1-2)Man(a1-3)[Fuc(a1-2)Gal(b1-3)GlcNAc(b1-2)Man(a1-6)]Man(b1-4)GlcNAc(b1-4)[Fuc(a1-6)]GlcNAc", "procedure,_shortened": "as §1"}, "[8]": {"target": "Fuc(a1-2)Gal(b1-3)GlcNAc(b1-3)Gal(b1-4)Glc", "procedure,_shortened": "as §1"}, "[9]": {"target": "Fuc(a1-2)Gal(b1-3)GlcNAc(b1-3)GalNAc", "procedure,_shortened": "as §1"}, "[10]": {"target": "Fuc(a1-2)Gal(b1-3)GlcNAc(b1-3)[Fuc(a1-2)Gal(b1-3)GlcNAc(b1-6)]GalNAc", "procedure,_shortened": "as §1"}, "[11]": {"target": "Fuc(a1-2)Gal(b1-3)GlcNAc(b1-3)[Gal(b1-4)GlcNAc(b1-6)]Gal(b1-4)Glc", "procedure,_shortened": "as §1"}, "[12]": {"target": "Fuc(a1-2)Gal(b1-3)GlcNAc(b1-3)[Neu5Ac(a2-6)Gal(b1-4)GlcNAc(b1-6)]Gal(b1-4)Glc", "procedure,_shortened": "as §1"}, "[13]": {"target": "Fuc(a1-2)Gal(b1-3)GlcNAc6S", "procedure,_shortened": "as §1"}, "[14]": {"target": "Fuc(a1-2)Gal(b1-3)[Fuc(a1-4)]GlcNAc", "procedure,_shortened": "as §1"}, "[15]": {"target": "Fuc(a1-2)Gal(b1-3)[Fuc(a1-4)]GlcNAc(b1-2)Man(a1-3)[Fuc(a1-2)Gal(b1-3)[Fuc(a1-4)]GlcNAc(b1-2)Man(a1-3)]Man(b1-4)GlcNAc(b1-4)GlcNAc", "procedure,_shortened": "as §1"}, "[16]": {"target": "Fuc(a1-2)Gal(b1-3)[Fuc(a1-4)]GlcNAc(b1-2)Man(a1-3)[Fuc(a1-2)Gal(b1-3)[Fuc(a1-4)]GlcNAc(b1-2)Man(a1-6)]Man(b1-4)GlcNAc(b1-4)[Fuc(a1-6)]GlcNAc(b1-4)[Fuc(a1-6)]GlcNAc", "procedure,_shortened": "as §1"}, "[17]": {"target": "Fuc(a1-2)Gal(b1-3)[Fuc(a1-4)]GlcNAc(b1-3)[Fuc(a1-3)[Gal(b1-4)]GlcNAc(b1-6)]Gal(b1-4)Glc", "procedure,_shortened": "as §1"}, "[18]": {"target": "Fuc(a1-2)Gal(b1-3)[Fuc(a1-4)]GlcNAc(b1-3)[Gal(b1-4)GlcNAc(b1-6)]Gal(b1-4)Glc", "procedure,_shortened": "as §1"}, "Fuc(a1-2)Gal(b1-4)Glc": {"target": "Fuc(a1-2)Gal(b1-4)Glc", "procedure,_shortened": "as §1"}, "Fuc(a1-2)Gal(b1-4)Glc6S": {"target": "Fuc(a1-2)Gal(b1-4)Glc6S", "procedure,_shortened": "as §1"}, "Fuc(a1-2)Gal(b1-4)GlcNAc": {"target": "Fuc(a1-2)Gal(b1-4)GlcNAc", "procedure,_shortened": "as §1"}, "[19]": {"target": "Fuc(a1-2)Gal(b1-4)GlcNAc(b1-2)Man", "procedure,_shortened": "as §1"}, "[20]": {"target": "Fuc(a1-2)Gal(b1-4)GlcNAc(b1-2)Man(a1-3)[Fuc(a1-2)Gal(b1-4)GlcNAc(b1-2)Man(a1-6)]Man(b1-4)GlcNAc(b1-4)GlcNAc", "procedure,_shortened": "as §1"}, "[21]": {"target": "Fuc(a1-2)Gal(b1-4)GlcNAc(b1-2)Man(a1-3)[Fuc(a1-2)Gal(b1-4)GlcNAc(b1-2)Man(a1-6)]Man(b1-4)GlcNAc(b1-4)[Fuc(a1-6)]GlcNAc", "procedure,_shortened": "as §1"}, "[22]": {"target": "Fuc(a1-2)Gal(b1-4)GlcNAc(b1-2)[Fuc(a1-2)Gal(b1-4)GlcNAc(b1-4)]Man(a1-3)[Fuc(a1-2)Gal(b1-4)GlcNAc(b1-2)Man(a1-6)]Man(b1-4)GlcNAc(b1-4)GlcNAc", "procedure,_shortened": "as §1"}, "[23]": {"target": "Fuc(a1-2)Gal(b1-4)GlcNAc(b1-3)Gal(b1-4)GlcNAc", "procedure,_shortened": "as §1"}, "[24]": {"target": "Fuc(a1-2)Gal(b1-4)GlcNAc(b1-3)Gal(b1-4)GlcNAc(b1-2)Man(a1-3)[Fuc(a1-2)Gal(b1-4)GlcNAc(b1-3)Gal(b1-4)GlcNAc(b1-2)Man(a1-6)]Man(b1-4)GlcNAc(b1-4)GlcNAc", "procedure,_shortened": "as §1"}}, "note": "The other results are listed elsewhere or left out."}
{"binder": "B1", "values": [{"measurement": "glycan array binding signal (z-score)", "setting": "Fuc(a1-2)Gal", "result": 23.9}, {"measurement": "glycan array binding signal (z-score)", "setting": "Fuc(a1-2)Gal(b1-3)GalNAc", "result": -0.081}, {"measurement": "glycan array binding signal (z-score)", "setting": "[1]", "result": -0.012}, {"measurement": "glycan array binding signal (z-score)", "setting": "[2]", "result": -0.127}, {"measurement": "glycan array binding signal (z-score)", "setting": "[3]", "result": -0.117}, {"measurement": "glycan array binding signal (z-score)", "setting": "[4]", "result": -0.023}, {"measurement": "glycan array binding signal (z-score)", "setting": "[5]", "result": -0.058}, {"measurement": "glycan array binding signal (z-score)", "setting": "Fuc(a1-2)Gal(b1-3)GlcNAc", "result": -0.125}, {"measurement": "glycan array binding signal (z-score)", "setting": "[6]", "result": 0.217}, {"measurement": "glycan array binding signal (z-score)", "setting": "[7]", "result": 0.153}, {"measurement": "glycan array binding signal (z-score)", "setting": "[8]", "result": -0.03}, {"measurement": "glycan array binding signal (z-score)", "setting": "[9]", "result": -0.018}, {"measurement": "glycan array binding signal (z-score)", "setting": "[10]", "result": -0.044}, {"measurement": "glycan array binding signal (z-score)", "setting": "[11]", "result": -0.141}, {"measurement": "glycan array binding signal (z-score)", "setting": "[12]", "result": -0.127}, {"measurement": "glycan array binding signal (z-score)", "setting": "[13]", "result": -0.082}, {"measurement": "glycan array binding signal (z-score)", "setting": "[14]", "result": -0.158}, {"measurement": "glycan array binding signal (z-score)", "setting": "[15]", "result": 0.089}, {"measurement": "glycan array binding signal (z-score)", "setting": "[16]", "result": 0.072}, {"measurement": "glycan array binding signal (z-score)", "setting": "[17]", "result": -0.097}, {"measurement": "glycan array binding signal (z-score)", "setting": "[18]", "result": 0.009}, {"measurement": "glycan array binding signal (z-score)", "setting": "Fuc(a1-2)Gal(b1-4)Glc", "result": 3.8}, {"measurement": "glycan array binding signal (z-score)", "setting": "Fuc(a1-2)Gal(b1-4)Glc6S", "result": 0.089}, {"measurement": "glycan array binding signal (z-score)", "setting": "Fuc(a1-2)Gal(b1-4)GlcNAc", "result": -0.085}, {"measurement": "glycan array binding signal (z-score)", "setting": "[19]", "result": -0.088}, {"measurement": "glycan array binding signal (z-score)", "setting": "[20]", "result": -0.069}, {"measurement": "glycan array binding signal (z-score)", "setting": "[21]", "result": 0.05}, {"measurement": "glycan array binding signal (z-score)", "setting": "[22]", "result": 0.166}, {"measurement": "glycan array binding signal (z-score)", "setting": "[23]", "result": -0.132}, {"measurement": "glycan array binding signal (z-score)", "setting": "[24]", "result": 0.066}]}
